# Assay results taken from the supplement of paper PMC10185492.
# The other results are listed elsewhere or left out. These are enrichments in a pooled selection; single values are uncertain.
# System: SARS-CoV-2 3CLpro (nsp5)
# Assay: substrate phage enrichment score (protease-eluted vs HEPES control, +1 offset) (ratio); higher = better cleaved substrate
# Conditions: selection round: 4; protease elution time: 15 min
# Method: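 Random heptapeptide substrate phage display (M13 pIII fusion, heptapeptide between an N-terminal biotinylated AviTag GLNDIFEAQKIEWHE and pIII; phages immobilised on streptavidin) eluted by cleavage with 50 nM protease in 20 mM HEPES at 37 °C. Selected phages were NGS sequenced, and the enrichment score is (reads in protease sample + 1)/(reads in HEPES blank-selection control + 1).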
row,Substance,substrate phage enrichment score
1,SWRSVEP,> 46
2,SCKHDQP,> 40
3,HGAAHHH,0.607
4,HSRDAQY,0.225
5,PAQQGGA,5.5
6,DKAAHHH,0.771
7,PSAAHHH,0.879
8,MRQIPSE,1.42
9,GRLPCGR,3.33
10,HVPRGNP,16
11,TSECSAR,> 35
12,VVRWPGR,0.471
13,KQVTTPW,1.88
14,YAGDGER,> 22
15,PGAAKHC,4.17
16,TDKQESS,4.67
17,DQVSTKK,2.5
18,RQASQYG,1.45
19,SPDFRSK,2.55
20,RCPATGM,10.8
21,PMEGKAP,6.25
22,PCRPTNH,7.5
23,APAAQLQ,> 44
24,CKPTPDH,> 23

row,Substance,substrate phage enrichment score
1,TKLNLNG,0.565
2,MRVINDE,0.812
3,VPYVPRA,2
4,SDRWSTK,1.27
5,SKTRVSQ,4.29
6,QFSTTLQ,> 62
7,CTIPQPP,> 28
8,MRESPPK,7
9,QNVVGRH,1.81
10,YAGSAAA,4
11,SPTAHHH,0.25
12,RQSNNDR,0.692
13,SAAAHHH,0.703
14,IGARLHA,6.33
15,VTNHHQS,> 24
16,QHHLPQR,> 21
17,TGAGARQ,> 35
18,TRDGMSA,2.5
19,ESRDRPT,0.864
20,DFSQPRW,11
21,LQRTWPN,12.7
22,NRAANGH,1.9
23,ASTLQSS,10.7
24,GRRCTRQ,4.17

row,Substance,substrate phage enrichment score
1,SQQQNRY,6.33
2,IAELPYR,4.67
3,ETKVSKQ,> 23
4,VLGHPTE,> 22
5,LRPATMQ,> 58
6,CTPCSNQ,> 159
7,AGPSYAQ,> 23
8,KFSVLQG,> 24
9,VGGSAAA,0.55
10,TSQTGAR,68
11,TLNFQGG,5
12,VHVHETI,2.29
13,HQAAHHH,0.792
14,SVTKPNS,0.438
15,TTRYQAD,1.19
16,YATSVSA,> 38
17,EQYFQGG,1.59
18,PQSHGRT,> 25
19,ATGTGAA,> 32
20,GSKSTHL,> 31
21,SERAVVL,> 22
22,TETKAVT,3.15
23,SGRAINS,2.12
24,PRQGCLT,> 40

row,Substance,substrate phage enrichment score
1,HPHGASR,1
2,TGAPSCC,> 23
3,VIPSVKQ,> 24
4,AHHARLQ,> 73
5,LPQSTLQ,> 31
6,VHSTDVI,> 26
7,LYFQGGI,1.6
8,DSPPAHH,> 24
9,SQCSYHQ,2.08
10,SRDWGAS,> 44
11,RGCISAA,> 24
12,LSSSYSQ,3.4
13,PKQGTTP,> 23
14,PTFPRHH,1.47
15,AGNQDTR,> 23
16,SNFQGGS,0.714
17,NVAAHHH,0.463
18,VSRPDPA,> 22
19,SNVRSHA,5.75
20,GSACQNR,12
21,LRYHCKG,> 23
22,QNTGNLT,> 23
23,SLWLGQT,> 44
24,KHFPDGV,> 23

row,Substance,substrate phage enrichment score
1,LNPHIMQ,2.11
2,ASGSTSE,4.2
3,TARGMGT,0.5
4,VWCSVIE,1.4
5,GCVLQAA,> 342
6,ERRKDKF,> 21
7,ALECSGW,1.44
8,PTTILPS,0.533
9,SHRVILQ,> 268
10,PRNQASP,0.457
11,SAGQKWQ,> 22
12,RPIHHHH,2.25
13,LCSNEHR,> 25
14,GSTWSSH,1.09
15,QAAHHHH,0.706
16,YRPKGFL,2.92
17,ITQCRGA,0.571
18,WHQKTNR,> 31
19,SAAAHQN,1.71
20,RKQREYR,0.455
21,GHHVHAA,1.46
22,RSTRVMQ,> 21
23,QCAVISQ,0.281
24,SSPYRCP,0.289

row,Substance,substrate phage enrichment score
1,RYFQGGS,0.557
2,HYFQGGS,0.5
3,SSRSQQE,1.54
4,LLQSSKG,7.82
5,SSRWCPG,14
6,RISGEGS,> 21
7,WPQTESC,> 49
8,ESLTAEC,1.06
9,HNSPSGK,> 35
10,SGAAHHH,0.762
11,DEAAHHH,0.528
12,NDGGCRA,> 21
13,RHGGQSV,3
14,DASHHRS,> 21
15,DPIKWTP,> 37
16,QPTELER,0.0952
17,VVSWGFM,2.86
18,ASLKVPG,2.45
19,CPDLDVT,1.08
20,NGAGSMP,> 21
21,QRSGRSG,48.2
22,EPKWPVY,3.6
23,TTAAHHH,1.18
24,TRGHSSV,0.0213

row,Substance,substrate phage enrichment score
1,RRPHIII,0.721
2,NRAAHHH,0.58
3,QWLHGQH,4.4
4,WYPRTSQ,0.2
5,SGRKSTN,2.86
6,PTLQSNA,> 48
7,PKFQERQ,> 69
8,NSQRLYS,0.0714
9,TPVPKTC,> 40
10,YPKQEPT,> 25
11,QPAAHHH,0.707
12,ASTRGTK,0.692
13,PECEYLR,> 22
14,ASASGSD,5.64
15,RNMSHSG,> 22
16,CTLQSNL,> 24
17,QVKPNGF,4.14
18,TCGSTAA,0.318
19,RAAAQQH,0.714
20,ALTCHPR,1.12
21,PAGNPLL,> 25
22,RGCQAHP,0.158
23,FPGERTH,2.16
24,LRRNAEC,8

row,Substance,substrate phage enrichment score
1,ALRVDRG,3.17
2,WGSQPVS,10.7
3,PAQTLTT,> 38
4,GSAGIER,0.52
5,PIQCLNA,1.4
6,SKPVTLQ,> 75
7,RPASLVE,> 25
8,QQCPAYG,0.222
9,IDAAKEQ,3
10,PKHTREH,4.8
11,EHQYHHG,0.212
12,QSILQGT,> 464
13,GCTHVPV,11.7
14,LDIYAEK,1.75
15,HGVVTVT,2.29
16,NKTVADG,> 57
17,DTECRIG,0.412
18,ARLQSRS,> 61
19,ERSAVMQ,> 21
20,TEAWNEI,2.27
21,FTTPKGP,8.29
22,NAAAHLN,> 104
23,SSISSMK,> 27
24,FQREAPK,3.29

row,Substance,substrate phage enrichment score
1,HRGAILQ,50.2
2,PRNNRLQ,9.67
3,PIKWHLQ,> 22
4,ATGVVCQ,> 32
5,SAAAHHP,0.763
6,SQMTTKP,> 27
7,RDRLHRQ,1.28
8,CVKPYVN,> 68
9,CVLYKKL,0.01
10,ALKSDGS,> 28
11,SAAAKHH,1.17
12,GAINTLM,> 32
13,VREQGRK,9
14,STPAHHH,0.687
15,PNRSGLI,0.1
16,TGPGELR,10
17,VSASRLQ,> 21
18,RMQTNPT,1.91
19,HTSWDFR,> 21
20,AFWNEMR,> 40
21,SIMREPV,> 32
22,SCPGSRS,> 114
23,CSAVLQS,> 24
24,VNAPIMR,13

row,Substance,substrate phage enrichment score
1,HNCSGRG,2.09
2,PDDETRR,1.2
3,RDTANLQ,> 83
4,TRQSPPL,0.643
5,TLYGPTG,> 29
6,ARMPLVQ,9.5
7,PGLSALQ,> 287
8,KRPWRCT,> 30
9,SQHQAGP,2.76
10,CLNLSRP,> 25
11,STEHGRN,> 23
12,SCYMMQA,> 23
13,VLTRSRE,9.17
14,QQGVTHR,3.4
15,PKTPTLS,0.308
16,DVDEKGF,4.36
17,RPTTVLQ,> 60
18,PRLPSFK,> 76
